According to PubChem BioAssay AID1466 (National Center for Advancing Translational Sciences (NCATS), 2008):
About 10 (0.005%) of roughly 200,000 compounds were called active. The shares of active, inactive and inconclusive entries below differ from those in the screen. The call rests on the fitted dose curve; in most records, active means well fitted inhibition curve with a large enough effect; inconclusive means small, poorly fitted or top-dose-only effect, or effect the other way, or another doubt; inactive means no such curve, though single readings can be large or run the other way. Potencies of inconclusive entries are doubtful fits and often do not repeat.

Target: Lysosomal alpha-glucosidase (Homo sapiens) (UniProt P10253)
Experiment: qHTS Assay for Inhibitors of Human alpha-Glucosidase as a Potential Chaperone Treatment of Pompe Disease;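 on activity change, negative = inhibition: plate controls were uninhibited enzyme wells for no effect and no-enzyme background for full effect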
Details: purified human GAA, 4-MU-alpha-glucoside fluorescence; activity change, negative = inhibition: at 76.9 µM (top of the series) unless noted
How it was run: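 qHTS format, compound range up to 77 uM. Human lysosomal enzyme at 4 nM, 400 uM 4-MU glucoside substrate, pH 5.0, 20 min room temperature; fluorescence after alkaline stop gives activity normalized to controls.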
Potency means the concentration at half of the fitted maximal effect; tags describe the fitted curve by direction and shape.

Potency, inconclusive:
CC(C)c1nnc(SCC(=O)N2CCc3ccccc32)n1C 11.2 µM [inhibitor, single point]
Cc1ccc(S(=O)(=O)N2CCC(C(=O)NCCCN3CCCCCC3)CC2)cc1 50.1 µM [inhibitor, single point]
CO/N=C/c1cc([N+](=O)[O-])ccc1Sc1ccc(C)cc1 50.1 µM [inhibitor, single point]
NNC(=O)c1[nH]c2ccc(Br)cc2c1-c1ccccc1 50.1 µM [inhibitor, single point]
Cc1cc(C)n(-c2ccc(C(=O)OCC(=O)Nc3ccc([N+](=O)[O-])cc3)cc2)n1 56.2 µM [inhibitor, single point]
CN1C(=O)c2ccccc2N(C)C1c1ccc2c(c1)OCO2 (stereo not given) 28.2 µM [activator, partial curve]
CCOc1ccc(NC(=O)C(=O)NCCCn2ccnc2)cc1 3.98 µM [inhibitor, full curve]
CCOc1nc(-c2ccc(OC)cc2)ccc1-c1noc(-c2cc(OC)c(OC)c(OC)c2)n1 0.891 µM [inhibitor, full curve, poor fit]
O=S(=O)(c1ccc(NC(=S)NN=C2CCCCC2)cc1)N1CCOCC1 50.1 µM [inhibitor, single point]
CC1=C(C(=O)OCCOC(C)C)C(c2cccnc2)C2=C(CCCC2=O)N1 (stereo not given) 35.5 µM [activator, partial curve]
Cc1[nH]n(-c2ccc([N+](=O)[O-])cc2)c(=O)c1C=NCCN1CCN(C(=O)c2ccc(Br)cc2)CC1 50.1 µM [inhibitor, partial curve, poor fit]
O=C(CCc1ccccc1)Nc1ccccc1[N+](=O)[O-] 5.62 µM [inhibitor, single point]
C/C(=N/NC(=O)CNC(=O)Cc1ccc(Cl)cc1)c1ccco1 7.08 µM [inhibitor, single point]
CCOC(=O)c1c2n(c3c(NCc4ccccc4)ncnc13)CCCC2 3.55 µM [inhibitor, full curve, poor fit]
CCc1ccc2c(c1)C1(C(=O)N2)N2CCCC2C(C(=O)c2ccc3ccccc3c2)C12C(=O)Nc1ccccc12 (stereo not given) 28.2 µM [inhibitor, partial curve]
COc1ccc(-c2cc3ccccc3oc2=O)cc1NC(=O)c1cccnc1 1.12 µM [inhibitor, full curve, poor fit]
Cc1[nH]c2ccccc2c1CN1CCc2ccccc2C1 50.1 µM [inhibitor, single point]
C=CCn1c(SCC(=O)c2c(C)[nH]c3ccccc23)nnc1-c1ccncc1 56.2 µM [inhibitor, partial curve]
Cc1cc(C)n(-c2nc(-c3cccc(Cl)c3)cs2)n1 50.1 µM [inhibitor, single point]
COc1ccc(/C=C/C(=O)NC(=S)NNC(=O)c2cc(OC)c(OC)c(OC)c2)cc1OC 35.5 µM [inhibitor, partial curve]
CC(=O)N1CCc2cc(Br)cc(S(=O)(=O)N3CCc4ccccc43)c21 14.1 µM [inhibitor, partial curve, poor fit]
Cc1c2cccn2cc[n+]1C 56.2 µM [activator, single point]
CCOC(=O)c1nn(-c2ccc(OCC)cc2)c2nc(-c3ccco3)c(C#N)c(=O)n12 25.1 µM [activator, partial curve]
CCOc1cc(NC(=O)c2ccco2)c(OCC)cc1NC(=O)c1cc(OC)c(OC)c(OC)c1 35.5 µM [activator, single point]
O=S(=O)(NCc1ccco1)c1ccc(S(=O)(=O)N2CCCC2)cc1 12.6 µM [inhibitor, single point]
Cc1ccc(NC(=S)NNC(=O)CSc2nnc(-c3ccc(Cl)cc3)n2C2CCCCC2)cc1 3.55 µM [inhibitor, single point]
CC(C)OCCCNC(=O)CCc1nc(-c2ccccc2)no1 39.8 µM [inhibitor, single point]
Cc1cc(=O)n2ccccc2c1C#N 35.5 µM [activator, partial curve]
Cc1cc2nc(CCN(Cc3cccnc3)C(=S)Nc3ccccc3)[nH]c2cc1C 2.24 µM [inhibitor, partial curve]
CN1CCN(C2=C(Cl)C(=O)N(c3cccc(Cl)c3)C2=O)CC1 56.2 µM [inhibitor, single point]
CCN(CC)C(=O)CSc1nnc(-c2ccco2)n1N 56.2 µM [inhibitor, single point]
O=C(Nc1cc(S(=O)(=O)N2CCOCC2)ccc1N1CCOCC1)c1cc(=O)[nH]c2ccccc12 28.2 µM [inhibitor, partial curve]
CCCNC(=O)CCc1cc(C(C)(C)C)c(O)c(C(C)(C)C)c1 39.8 µM [inhibitor, single point]
Cc1nn(CC(=O)N2CCN(Cc3ccccc3)CC2)c(=O)c2ccccc12 4.47 µM [inhibitor, full curve, poor fit]
O=C(OC1CCOC1=O)c1cc(-c2ccc(Br)cc2)nc2ccccc12 (stereo not given) 56.2 µM [inhibitor, single point]
CC(=O)c1cccc(NC(=O)N2CCCC2C(=O)Nc2cccc(C)c2)c1 (stereo not given) 11.2 µM [inhibitor, single point]
CCC1C(=O)N=C(SCC(=O)Nc2ccc(S(N)(=O)=O)cc2)NC1=O (stereo not given) 25.1 µM [activator, partial curve]
COc1ccc2c(c1)C(SCC(=O)NCCc1ccc(Cl)cc1)CC(C)(C)O2 (stereo not given) 28.2 µM [inhibitor, single point]
Cc1cccc(/C=N/NC(=O)C2CCCNC2=O)c1 (stereo not given) 1.26 µM [inhibitor, single point]
Cc1cnn(C(=S)NCCc2ccccc2)c1 3.55 µM [inhibitor, partial curve]
Cc1nn(C)cc1C1C2=C(CC(C)(C)CC2=O)N(c2ccccc2)C2=C1C(=O)CC(C)(C)C2 22.4 µM [activator, single point]
CO/N=C/C=C1/N(C)c2ccccc2C1(C)C 44.7 µM [inhibitor, single point]
CCN(CC(=O)Nc1cccc(C(C)=O)c1)S(=O)(=O)c1ccc(OC)cc1 3.98 µM [inhibitor, partial curve]
COC(=O)CSc1nc(C)c2ccc(OC)cc2n1 31.6 µM [activator, partial curve]
O=C(Nc1ccc(S(=O)(=O)N2CCc3ccccc3C2)cc1)C1CCCO1 (stereo not given) 31.6 µM [inhibitor, partial curve]
CC(NC(=O)CSc1ncnc2nc[nH]c12)c1ccccc1 (stereo not given) 35.5 µM [inhibitor, partial curve, poor fit]
COc1ccc(C2SCC(C(=O)O)N2C(C)=O)cc1 (stereo not given) 2.24 µM [inhibitor, full curve]
CCOC(=O)CC1(c2ccccc2)CCOC(C)(C)C1 (stereo not given) 11.2 µM [inhibitor, single point]

Activity change, negative = inhibition, inactive:
COc1ccc(Cn2ccnc2)cc1Br 1.28%
CC(C)(C)c1nn(-c2ccccc2)c2[nH]c(=O)c(CNc3ccc4c(c3)OCCO4)cc12 -6.45%
Nc1ccccc1Nc1cccc(C(F)(F)F)c1 -5.19%
CCOCCCNC(=O)CCCC1=NS(=O)(=O)c2ccccc2N1 2.36%
COc1ccccc1N1CCN(C(=O)c2ccc3c(=O)n(Cc4ccco4)c(=S)[nH]c3c2)CC1 5.85%
CCCc1[nH]nc2c1C(c1ccc(OC)c(CSC3=NCCS3)c1)C(C#N)=C(N)O2 (stereo not given) -7.93%
COc1ccc(N2Nc3n[nH]c(N)c3N2)cc1 -10.6%

Activity change, negative = inhibition, inconclusive:
C/C(=N\Nc1ccc(Cl)c(C(=O)O)c1)c1cc2ccccc2o1 -19.2% [inhibitor]
Cc1ncc(C[n+]2csc(CCOC(=O)C34CC5CC(CC(C5)C3)C4)c2C)c(N)n1 6.84% [activator]
O=c1ccc2ccc(Oc3ccc([N+](=O)[O-])cc3[N+](=O)[O-])cc2o1 56.1% [activator]
Cn1c(CCc2ccccc2)nnc1SCC(=O)N1CCCC1 -16.1% [inhibitor]
O=C(N/N=C/c1ccc(N2CCOCC2)c([N+](=O)[O-])c1)c1ccc(F)cc1 -15% [inhibitor]
CC(C)Oc1ccc(/C=C(/NC(=O)c2ccccc2)C(=O)NCCC(=O)O)cc1 24.6% [activator]
COc1ccc(Cc2cnc(N)s2)cc1 9.12% [activator]
CCN(CC)c1ccc(C(=O)OCc2cc(=O)oc3cc(O)ccc23)cc1 20.7% [activator]
CC(=O)c1cccc(NC(=O)c2ccoc2C)c1 9.72% [activator]
O=C1C(=O)N(CCN2CCOCC2)C(c2cccnc2)/C1=C(/O)c1ccc(Cl)cc1 (stereo not given) 19.5% [activator]
